Laboratory results as given in the supplement of paper PMC5895741.

B1: MS2 coat protein; the commonest letter at each place (parent)
chain: MASNFTQFVLVDNGGTGDVTVAPSNFANGVAEWISSNSRSQAYKVTCSVRQSSAQNRKYTIKVEVPKVATQTVGGVELPVAAWRSYLNMELTIPIFATNSDCELIVKAMQGLLKDGNPIPSAIAANSGIY

Variants of: B1
Test: apparent fitness score (VLP assembly selection enrichment vs plasmid library) (log10 ratio); higher = better expression / assembly into well-formed VLPs
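Also: counts from Illumina MiSeq reads, cDNA of packaged RNA versus plasmid DNA taken before selection, each replicate independent from library construction onward, expression induced with 0.1% arabinose.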

Apparent fitness score (log10), by site and new letter:
S48: Y < -4 | A 0.29 | G -1.02 | V 0.08 | L -0.169 | R 0.636 | C 0.671 | W -0.997 | N 0.727 | P < -4 | T 0.343 | I < -4 | F 0.271 | M < -4 | D < -4 | H -0.0475 | K 0.37 | Q -0.153 | E < -4
S40: W -1.6 | K < -4 | E < -4 | N -0.771 | C < -4 | A -0.545 | L < -4 | R -1.5 | T -1.24 | P -1.41 | V -0.584 | H < -4 | M < -4 | Q < -4 | D < -4 | F -0.213 | G -1.59 | Y < -4
C47: T -0.243 | R -0.516 | K < -4 | W -0.369 | E < -4 | L 0.888 | V 1.03 | H < -4 | D < -4 | G -0.895 | M 0.647 | I -0.709 | A -1.15 | Y 0.00982 | F 0.37 | S -0.636 | P -1.09 | N < -4 | Q < -4
K58: A -0.305
S52: Y -0.382 | A 0.714 | G -0.932 | I 0.3 | C 0.751 | E -0.249 | K -1.59 | N < -4 | W -0.478 | D < -4 | V 0.476 | F -0.185 | H -0.341 | L -1.3 | Q -0.401 | P 0.547 | T -0.35 | M 0.138 | R -1.45
Q55: Y -0.585 | D -0.962 | V 0.376 | G < -4 | H 0.226 | K 0.537 | A -0.627 | S -0.213 | M -0.35 | E -1.09 | F -0.101 | L -0.0154 | C -0.145 | T 0.283 | W -0.0213 | R 0.452 | I 0.139 | N 0.331 | P -1.19
T46: A < -4 | N < -4 | H < -4 | L -0.591 | G -1.52 | Y < -4 | S -0.788 | D < -4 | Q -1.18 | F < -4 | K < -4 | C < -4 | I < -4 | W -1.06 | E < -4 | V -0.215 | P < -4 | R -1.62
S53: T 0.34 | P 0.456 | K < -4 | D < -4 | M < -4 | R -1.06 | Y < -4 | L < -4 | H < -4 | F 0.157 | I < -4 | V < -4
Q51: K 1.17 | L 0.262 | N 0.675 | A -0.41 | H 0.276 | G 0.582 | R 0.967 | S 0.758 | W < -4 | I -1.47 | M -0.165 | Y < -4 | F -1.86 | P 0.803 | D 0.241 | V -1.57 | C -0.867 | T -0.228 | E -0.263
A42: F -0.984 | V -0.268 | D -0.51 | N -0.943 | E -0.846 | Y < -4 | S -0.204 | T -0.507 | L -1.03 | H < -4 | Q -1.52 | R -1.14 | G -0.206 | K -0.596 | P -0.806 | I < -4 | C 1.04 | W -1.11 | M < -4
Q41: C 0.778 | K -0.902 | W -0.902 | H -0.223 | N -0.701 | G -0.869 | F < -4 | L 0.0877 | V -1.36 | I < -4 | A 0.907 | R 0.0347 | E -1.18 | S -0.487 | M < -4 | D -1.51 | P -0.885 | T -0.244 | Y < -4
A54: V 0.538 | F -1.39 | S 0.235 | L -0.0605 | W -0.386 | E -0.831 | G -1.15 | Y < -4 | C < -4 | I 0.0951 | P 0.517 | T -0.479 | R 0.429 | N -0.087 | K 0.47 | Q -0.087
R50: C -0.0281 | D < -4 | M -0.67 | H 0.406 | Y -1.09 | Q < -4 | I -0.0555 | K 1.02 | F -0.435 | E -1.47 | L -0.798 | V -0.713 | W < -4 | T < -4 | A < -4 | G 0.341 | S -0.178 | N < -4 | P 0.28
R39: V < -4 | W -0.721 | T < -4 | Y < -4
V49: Q -0.408 | T 0.635 | E -0.766 | H 0.0878 | I -0.143 | A 0.285 | P < -4 | D -0.25 | L 0.695 | R < -4 | C 0.463 | F -0.832 | W -0.512 | G < -4 | K -1.28 | N 0.382 | M -0.244 | S 0.732 | Y 0.0232
V45: N < -4 | T < -4 | L < -4 | W < -4 | F < -4 | G < -4 | I < -4 | Q < -4 | K < -4 | H < -4 | D < -4 | M -0.721 | C 0.0122 | E < -4 | S < -4 | A < -4 | R < -4 | P < -4
R57: Y 0.325 | H < -4 | P -1.34 | M -0.321 | F 0.153 | D -1.53 | W 0.612 | I -0.238 | N < -4 | K -1.31 | A < -4 | C -0.192 | L -0.818 | E -0.32 | S -0.94 | Q 0.39 | V 0.13 | T -1.18 | G -1.46
K44: E < -4 | S -1.03 | D < -4 | R -0.195 | G -1.64 | Y 0.429 | W < -4 | L -0.00397 | M -0.632 | N < -4 | P < -4 | I -0.541 | A -0.637 | F -0.00448 | T -0.378 | V -0.038 | H < -4 | Q -1.07 | C 0.0309
N56: F -1.5 | Y -0.538 | Q -0.382 | G -1.69 | D 0.0111 | A 0.33 | R -0.721 | H -1.09 | K -0.865 | C -0.624 | S -0.603 | V < -4 | P -1.91 | M -0.622 | T -0.128 | E < -4 | W -1.01 | L -0.986 | I -0.833
Y43: F 0.417 | I < -4 | P -1.3 | M -1.02 | H 0.108 | S < -4 | V -0.845 | R < -4 | G < -4 | E < -4 | L < -4 | T < -4 | N < -4 | W < -4 | C -0.107 | D < -4 | A -0.67 | K < -4 | Q < -4
